Measured values published in PubChem BioAssay AID1865 (National Center for Advancing Translational Sciences (NCATS), 2009).
The campaign covered roughly 280,000 compounds. About 540 (0.19%) were called active. Not shown: some 2% with an inconclusive outcome. Calls follow the shape of the dose curve; as a rule, active = well fitted activation curve with a large enough effect; inconclusive = small, poorly fitted or top-dose-only effect; inactive = flat fitted curve, though single readings scatter. The list shows a part of the results, in another mix than the full data. Non-standard residues stand in square brackets, D forms with d. Residues, ends and D or L forms follow the SMILES beside them. Nle = CCCC[C@H](N)C(=O)O

Test: Quantitative High-Throughput Screen for Regulators of Epigenetic Control; also: nearly all actives have a fitted effect of over 60% in size; as to GFP activation: % of control where 0% means no effect
Conditions: murine LDR cells, GFP reporter derepression, 30 h; series mostly up to 53.9 µM; GFP activation: at the top concentration
Method in brief: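 GFP-positive cell count by laser-scanning cytometry (objects 20–120 um) after 30 h, 37 C compound exposure of murine LDR cells; reporter is CMV-GFP integrated at a silenced locus, inducible by HDAC or DNMT inhibitors.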
Potency is read from the fitted curve at half-maximal effect.

SMILES	Potency	GFP activation
Cc1ccc(/C=C2/NC(=O)N(Cc3ccccc3)C2=O)s1	active: 25.1 µM	–
COc1ccccc1-c1nc(C#N)c(N2CCN(c3ccccc3)CC2)o1	–	inactive: -3.17%
CC(=O)OCC1OC(C#Cc2ccccc2)C=CC1OC(C)=O (configuration not stated)	–	inactive: 15.9% [at 10.1 µM]
COC(=O)C1=C(C)N(Cc2ccccc2)C2=C3C(=O)N(c4ccccc4)C(=O)C3[C@@](O)(C(=O)OC)C(=O)N2C1c1ccccc1 (some centres not stated)	–	inactive: 0.833% [at 10.1 µM]
COC1C=CO[C@@]2(C)Oc3c(C)c(O)c4c(O)c(c(C=NN5CCN(C)CC5)c(O)c4c3C2=O)NC(=O)/C(C)=C\C=CC(C)C(O)[C@@H](C)C(O)C(C)[C@H](OC(C)=O)C1C (some centres not stated)	–	inactive: 0.833%
CCN(CC)c1ccc2cc(-c3nc4ccccc4[nH]3)c(=O)oc2c1	active: 2.82 µM	–
COC1(OC)N=C(N)C2(C#N)C(c3ccc(F)cc3)C12C#N (configuration not stated)	–	inactive: -9.52%
CCCN1C(=O)/C(=C\C=C2\N(CC)c3ccccc3C2(C)C)SC1=S	–	inactive: -5.8%
O=C(CSc1ncn[nH]1)OCN1C(=O)c2ccccc2C1=O	–	inactive: -1.11%
CC(C)Cn1c(N)c(C(=O)COC(=O)c2cc(C(F)(F)F)nc3c(C(F)(F)F)cccc23)c(=O)n(C)c1=O	–	inactive: 13.9%
N#C/C(=C\c1cccs1)c1nc2ccccc2[nH]1	–	inactive: -1.77%
COC(=O)[C@@]1(Cc2ccc(OC)cc2)[C@H]2c3cc(C(=O)N4CCCC4)n(Cc4ccc(OC)c(OC)c4)c3C[C@H]2CN1C(=O)c1ccccc1	–	inactive: 2.94%
CC1(C)CC(CCNC(=O)c2ccco2)CC(C)(C)N1	–	inactive: -16.8%
COc1cccc(/C=N/n2c(C)nc3ccccc32)c1OC	–	inactive: -6.35%
OCc1cc(C(O)CNCCCCCCOCCCCc2ccccc2)ccc1O (configuration not stated)	inactive	–
CN1/C(=C/C=C(C#N)C#N)C(C)(C)c2ccccc21	–	inactive: 0.806%
CCOc1ccccc1NC(=O)CN(C)S(=O)(=O)c1ccc(OC)c(C)c1	–	inactive: 0%
CCOc1cc(-c2noc(CCCC(N)=O)n2)cc(Br)c1OC	–	inactive: -4.43%
CCCCCCc1ccc(O)cc1O	–	inactive: 13.1%
O=C(c1noc2c1CCc1ccccc1-2)N1CCOCC1	–	inactive: -3.17%
Cc1cc(C)c(NC(=O)Cn2cnc3c(oc4ccccc43)c2=O)c(C)c1	–	inactive: -2.94%
Cc1cccc2cc(C#N)c(N3CCN(C)CC3)nc12	–	inactive: -0.292%
CC(NC(=O)CSc1ncccn1)c1ccccc1 (configuration not stated)	–	inactive: -7.16%
COC(=O)CCC(=O)Nc1ccc(NC(=O)CCC(=O)OC)cc1	–	inactive: 0%
CCC(=O)Nc1ccc(N2CCN(Cc3ccccc3F)CC2)cc1	–	inactive: 15.5%

SMILES	Potency	GFP activation
N#C/C(=C/c1ccc(O)cc1)c1nc(-c2ccc(-c3ccccc3)cc2)cs1	active: 11.2 µM	–
COC(=O)[C@@H]1[C@@H]2C[C@H]3c4[nH]c5cc(OC)ccc5c4CCN3C[C@@H]2C[C@H](OC(=O)c2cc(OC)c(OC)c(OC)c2)[C@H]1OC	–	inactive: 7.9% [at 16.9 µM]
CCCCCCc1cc2cc(-c3nnc(-c4ccccc4)o3)c(=O)oc2cc1O	active: 1.78 µM	–
CC1CCCCC1NC(=O)CSc1nnc(-c2ccccc2)n1N (configuration not stated)	–	inactive: -10.4%
CC(=O)N1CCC2(CC1)CC(=O)c1cc(OCC(=O)NCc3ccc(C)cc3)ccc1O2	–	inactive: -12.7%
Cc1cc(=O)oc(C)c1C(=O)N1CCN(C(c2ccccc2)c2ccccc2)CC1	–	inactive: 0.686%
COc1cc(C)c(-c2cc(C(=O)O)c(C)o2)cc1C(C)C	–	inactive: -3.86%
COC(=O)CSc1nc2cc(C)ccc2cc1C#N	active: 15.8 µM	–
COc1ccc(CCNc2ncnc3nc[nH]c23)cc1OC	–	inactive: 0%
O=C1N=C(N2CCOCC2)S/C1=C\c1cccs1	–	inactive: -4.95%
Cc1c(NC(=O)c2cc(-c3ccccc3O)on2)c(=O)n(-c2ccccc2)n1C	–	inactive: 13.2%
O/N=C1\CC(O)Cc2nonc21 (configuration not stated)	–	inactive: -6.09%
COCC(=O)N(Cc1cc2cc(OC)ccc2[nH]c1=O)c1ccccc1	–	inactive: -19.9%
COc1cc2c(cc1OC)C(Cc1ccc(O)cc1)NCC2 (configuration not stated)	–	inactive: 1.98%
CSc1nc(C)cc(/C=C\c2ccccc2)c1C#N	–	inactive: 1.28%
Cc1cc(C(=O)CCl)c(C)n1Cc1ccco1	active: 12.6 µM	–
CCOC(=O)CNc1nc2ccccc2n2c(C)nnc12	–	inactive: 8.45%
CCOC(=O)c1ccc(NS(=O)(=O)c2cccc3nsnc23)cc1	–	inactive: -15%
Cc1ccc(NC(=O)/C=C/c2ccc([N+](=O)[O-])s2)cc1	active: 8.91 µM	–
CNS(=O)(=O)c1ccc(NC(=O)c2nc3nc(C)cc(C(F)F)n3n2)cc1	–	inactive: 0.781%
CCCC[C@@H](C=O)NC(=O)[C@H](CC(C)C)NC(=O)[C@H](CC(C)C)NC(C)=O (Ac-Leu-Leu-[Nle]-aldehyde)	active: 11.2 µM	–
O=C(CSc1ccc(-c2cccs2)nn1)Nc1ccccc1	–	inactive: 2.54%
CCN(CC(=O)Nc1c(C(=O)OC)[nH]c2ccc(C)cc12)c1ccc2c(c1)OCO2	–	inactive: -2.59%
O=C(COc1ccc(S(=O)(=O)NC2CCCCC2)cc1Cl)NCC1CCCO1 (configuration not stated)	–	inactive: -19%
CCN(CC)CCCNC(=O)CSc1c2c(nc3cc(Cl)ccc13)CCCC2	–	inactive: -0.841%

SMILES	Potency	GFP activation
CCn1c(N)nc2c1c(=O)n(C)c(=O)n2C	–	inactive: 0%
CO[C@H]1/C=C/O[C@@]2(C)Oc3c(C)c(O)c4c(O)c(c(/C=N/N5CCN(C)CC5)c(O)c4c3C2=O)NC(=O)/C(C)=C\C=C\[C@H](C)[C@H](O)[C@@H](C)[C@@H](O)[C@@H](C)[C@H](OC(C)=O)[C@@H]1C	–	inactive: 1.05%
COc1cccc2c1C(=O)c1c(O)c3c(c(O)c1C2=O)C[C@@](O)(C(=O)CO)C[C@@H]3OC1C[C@@H](N)[C@H](O)[C@H](C)O1 (some centres not stated)	–	inactive: 2.12%
CCOC(=O)c1cccc(NC(=O)c2cnc3ccccc3n2)c1	–	inactive: -6.8%
CCOC(=O)C1C(=O)C=C(/C=C/c2ccc(N(C)C)cc2)CC1c1ccccc1 (configuration not stated)	active: 22.4 µM	–
O=C(CSc1nc2c([nH]c3ccccc32)c(=O)n1-c1ccc(F)cc1)NCc1ccco1	–	inactive: 9.4%
COCCSc1ccccc1C(=O)Nc1nncs1	–	inactive: -0.877%
C=C(CC)C(=O)c1ccc(OCC(=O)O)c(Cl)c1Cl	inactive	–
CCc1ccc(C(=O)c2cn(CC(=O)Nc3cc(F)ccc3F)c3nc(C)ccc3c2=O)cc1	active: 20 µM	–
O=C(Nc1ccccc1)/C(=C\c1ccc2c(c1)OCO2)NC(=O)c1ccco1	–	inactive: 1.89%
CCOC(=O)c1cn(-c2ccc(F)c(F)c2)c2c(F)c(F)c(F)c(F)c2c1=O	–	inactive: 5.13%
CCN(CC)c1ccc2cc(-c3nc4ccccc4n3C)c(=O)oc2c1	active: 7.08 µM	–
O=C(c1ccccc1)c1ncc(C(F)(F)F)cc1Cl	–	inactive: 0%
N#C/C(=C\C=C\c1ccccc1)C(=O)Nc1ccccc1	–	inactive: -0.962%
CCOn1c(=O)c[n+]([O-])c2ccccc21	active: 10 µM	–
CCCCN1CCc2c([nH]c3c(C)cccc23)C1=O	–	inactive: 5.74%
N#Cc1c(-c2ccccc2)no[n+]1[O-]	–	inactive: 0%
CC12C(=O)N(CCC(=O)O)C(=O)C1C1C=CC2C1 (configuration not stated)	–	inactive: -4.76%
O=c1c[n+]([O-])c2ccccc2n1OCc1c(F)cccc1F	active: 12.6 µM	–
Cn1cccc1/C=C1\CCC/C(=C\c2cccn2C)C1=O	active: 12.6 µM	–
CC(=O)[C@]1(O)CCC2C3CC(C)C4=CC(=O)C=CC4(C)[C@@]3(F)C(O)C[C@]21C (some centres not stated)	–	inactive: -0.5%
CCCCCCCCCCCCCCC[C@@H](O)[C@@H](N)CO	inactive	–
O=c1c(N2CCOCC2)nsnc1N1CCOCC1	–	inactive: -9.31%
CC1=C(/C=C/C(C)=C/C=C/C(C)=C/C(=O)Nc2ccc(O)cc2)C(C)(C)CCC1	inactive	–
COc1ccc(C(=O)Nc2nc(C)c(C(=O)N(C)C)s2)cc1OC	–	inactive: -3.17%

SMILES	Potency	GFP activation
CCN(CC)c1ccc(/C=C(\C#N)c2nc(-c3cccs3)c(NC(C)=O)s2)cc1	active: 1.58 µM	–
CCN(CC)S(=O)(=O)c1ccc2c(c1)c(=O)c(C(=O)NCCOC)cn2C	–	inactive: -1.59%
CN(C)Cc1nc2c([nH]1)c(=O)n(C)c(=O)n2C	–	inactive: 0%
CN(C)c1ccc(/C=C(\C#N)C(=O)Nc2nc3c(s2)CCN(Cc2ccccc2)C3)cc1	active: 7.94 µM	–
Oc1ccc(NCc2ccccc2OCc2ccccc2F)cc1	–	inactive: 2.03%
Cc1cc(=O)oc2cc3c(cc12)OCCO3	–	inactive: -8.81%
COc1ccccc1C(CCN(Cc1cccs1)C(C)=O)c1ccco1 (configuration not stated)	–	inactive: 4.43%
COc1ccc(NC(=O)/C(C#N)=C\c2ccc(N3CCOCC3)o2)cc1	active: 15.8 µM	–
O=C1Nc2c(c(=O)[nH]c(=O)n2-c2ccccc2)C1(Nc1ncccn1)C(F)(F)F (configuration not stated)	–	inactive: 4.12%
CCC1CCCCN1C(=O)CSc1nc2c(cnn2-c2ccc(C)cc2)c(=O)[nH]1 (configuration not stated)	–	inactive: 1.28%
COC(=O)[C@H]1[C@H]2C[C@@H]3c4[nH]c5cc(OC)ccc5c4CCN3C[C@H]2C[C@@H](OC(=O)c2cc(OC)c(OC)c(OC)c2)[C@@H]1OC	active: 22.4 µM	–
CC(C)(C)Nc1nc(OCC(F)(F)F)nc(OCC(F)(F)F)n1	–	inactive: -4.76%
COc1ccc(-c2cc(C(F)(F)F)c(C#N)c(SCC(=O)Nc3ccccc3C#N)n2)cc1	active: 7.94 µM	–
CCCCOc1ccc(C(=O)NCc2ccccn2)cc1	–	inactive: 0.207%
O=C(N/N=C/C=C\c1ccco1)c1cccs1	–	inactive: -0.935%
COc1cc2c(-c3ccccc3O)nc3c(c(C)nn3-c3ccccc3)c2cc1OC	–	inactive: 8.49%
Cc1ccccc1NC(=O)/C=C/c1ccc([N+](=O)[O-])s1	active: 3.55 µM	–
COCCN=C1OC(=O)N2C(=O)C3=C4C(C[C@H]5C(=O)N(c6ccccc6)C(=O)[C@H]5[C@H]4[C@@]12Cc1ccccc1)[C@H]1C(=O)N(c2ccccc2)C(=O)[C@H]1[C@H]3C (some centres not stated)	–	inactive: 0.36%
COc1ccc(CN(CCN(C)C)c2ccccn2)cc1	inactive	–
CCOC(=O)C1=C(C)NC(=O)NC1c1ccc(OC)c(CN2CCOCC2)c1 (configuration not stated)	–	inactive: -16.9%
COc1ccc(-c2nc(C#N)c(NCCCN(C)C)o2)cc1OC	–	inactive: -19%
CCN(CC)c1ccc2c(Cl)c(Br)c(=O)oc2c1	active: 11.2 µM	–
